# Laboratory results from the supplement of paper PMC4604168 (melanoma cell lines).
# The other results are listed elsewhere or left out. Most values come without repeats; read them as rough.
# System: SkMel5
# Test: cell count relative to DMSO control; melanoma cells; higher = more viable cells
# Details: library dose: standard library concentration; 72 h
# 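Also: cells treated in 1,536-well plates, then fixed and DAPI-stained, with nuclei counted from automated high-throughput microscope images.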
row,Compound,cell count
1,"NC1(c2ccc(-c3nc4ccn5c(=O)[nH]nc5c4cc3-c3ccccc3)cc2)CCC1 + Cn1c(Nc2ccc(C(F)(F)F)cc2)nc2cc(Oc3ccnc(-c4ncc(C(F)(F)F)[nH]4)c3)ccc21 [CHIR265] (first compound 2 µM, partner dose 0.4 µM)",34.4%
2,"CN(c1ncccc1CNc1nc(Nc2ccc3c(c2)CC(=O)N3)ncc1C(F)(F)F)S(C)(=O)=O + C=CCn1c(=O)c2cnc(Nc3ccc(N4CCN(C)CC4)cc3)nc2n1-c1cccc(C(C)(C)O)n1 [MK1775] (first compound 0.4 µM, partner dose 0.1 µM)",73.7%
3,"CCCS(=O)(=O)Nc1ccc(F)c(C(=O)c2c[nH]c3ncc(Cl)cc23)c1F + COc1cc(Nc2ncc(F)c(Nc3ccc4c(n3)NC(=O)C(C)(C)O4)n2)cc(OC)c1OC [Tamatinib] (first compound 0.4 µM, partner dose 2 µM)",58.5%
4,"NC1(c2ccc(-c3nc4ccn5c(=O)[nH]nc5c4cc3-c3ccccc3)cc2)CCC1 + CN(C)S(=O)(=O)c1ccc2c(c1)/C(=C/c1cc3c([nH]1)CCCC3)C(=O)N2 [SU6656] (first compound 2 µM, partner dose 2 µM)",64.4%
5,"CS(=O)(=O)c1ccc(C(=O)Nc2ccc(Cl)c(-c3ccccn3)c2)c(Cl)c1 [vismodegib] + NC(=O)Nc1cc(-c2cccc(F)c2)sc1C(=O)N[C@H]1CCCNC1 [AZD7762] (first compound 5 µM, partner dose 0.1 µM)",96.8%
6,"CCCS(=O)(=O)Nc1ccc(F)c(C(=O)c2c[nH]c3ncc(Cl)cc23)c1F + OCCn1cc(-c2cnc3nnn(Cc4ccc5ncccc5c4)c3n2)cn1 [PF04217903] (first compound 0.4 µM, partner dose 5 µM)",74.2%
7,"CS(=O)(=O)c1ccc(C(=O)Nc2ccc(Cl)c(-c3ccccn3)c2)c(Cl)c1 [vismodegib] + CC(=O)c1c(C)c2cnc(Nc3ccc(N4CCNCC4)cn3)nc2n(C2CCCC2)c1=O [palbociclib] (first compound 5 µM, partner dose 0.2 µM)",69.9%
8,"CN(c1ncccc1CNc1nc(Nc2ccc3c(c2)CC(=O)N3)ncc1C(F)(F)F)S(C)(=O)=O + CS(=O)(=O)CCNCc1ccc(-c2ccc3ncnc(Nc4ccc(OCc5cccc(F)c5)c(Cl)c4)c3c2)o1 [lapatinib] (first compound 0.4 µM, partner dose 4 µM)",37.7%
9,"CN(c1ncccc1CNc1nc(Nc2ccc3c(c2)CC(=O)N3)ncc1C(F)(F)F)S(C)(=O)=O + Cn1c(Nc2ccc(C(F)(F)F)cc2)nc2cc(Oc3ccnc(-c4ncc(C(F)(F)F)[nH]4)c3)ccc21 [CHIR265] (first compound 0.4 µM, partner dose 0.4 µM)",32.7%
10,"CS(=O)(=O)c1ccc(C(=O)Nc2ccc(Cl)c(-c3ccccn3)c2)c(Cl)c1 [vismodegib] + Cn1c(Nc2ccc(C(F)(F)F)cc2)nc2cc(Oc3ccnc(-c4ncc(C(F)(F)F)[nH]4)c3)ccc21 [CHIR265] (first compound 5 µM, partner dose 0.4 µM)",49.4%
11,"CS(=O)(=O)c1ccc(C(=O)Nc2ccc(Cl)c(-c3ccccn3)c2)c(Cl)c1 [vismodegib] + O=C(CCCCCCC(=O)Nc1ccccc1)NO [vorinostat] (first compound 5 µM, partner dose 0.4 µM)",59.3%
12,"CS(=O)(=O)c1ccc(C(=O)Nc2ccc(Cl)c(-c3ccccn3)c2)c(Cl)c1 [vismodegib] + Cc1cc(Nc2cc(N3CCN(C)CC3)nc(/C=C/c3ccccc3)n2)n[nH]1 [ENMD2076] (first compound 5 µM, partner dose 0.2 µM)",79.5%
13,"CS(=O)(=O)c1ccc(C(=O)Nc2ccc(Cl)c(-c3ccccn3)c2)c(Cl)c1 [vismodegib] + OCc1c[nH]c2ccccc12 [Indole-3-carbinol] (first compound 5 µM, partner dose 4 µM)",117%
14,"CN(c1ncccc1CNc1nc(Nc2ccc3c(c2)CC(=O)N3)ncc1C(F)(F)F)S(C)(=O)=O + C[C@]1(c2nc3c(C(N)=O)cccc3[nH]2)CCCN1 [Veliparib] (first compound 0.4 µM, partner dose 7 µM)",64.1%
15,"C=C(c1ccc(C(=O)O)cc1)c1cc2c(cc1C)C(C)(C)CCC2(C)C [Bexarotene] + Cc1ccc(NC(=O)c2cccc(N(C)C)c2)cc1NC(=O)c1ccc(O)cc1 [ZM336372] (first compound 10 µM, partner dose 10 µM)",94.5%
16,"CCCS(=O)(=O)Nc1ccc(F)c(C(=O)c2c[nH]c3ncc(Cl)cc23)c1F + CC1(C)NC(=O)N(c2ccc([N+](=O)[O-])c(C(F)(F)F)c2)C1=O [nilutamide] (first compound 0.4 µM, partner dose 5 µM)",66.6%
17,"CS(=O)(=O)c1ccc(C(=O)Nc2ccc(Cl)c(-c3ccccn3)c2)c(Cl)c1 [vismodegib] + C[C@@H]1CCN(C(=O)CC#N)C[C@@H]1N(C)c1ncnc2[nH]ccc12 [CP690550] (first compound 5 µM, partner dose 5 µM)",85.7%

row,Compound,cell count
1,"NC1(c2ccc(-c3nc4ccn5c(=O)[nH]nc5c4cc3-c3ccccc3)cc2)CCC1 + CN(NC(=O)CC(=O)NN(C)C(=S)c1ccccc1)C(=S)c1ccccc1 [STA4783] (first compound 2 µM, partner dose 0.03 µM)",59.8%
2,"CS(=O)(=O)c1ccc(C(=O)Nc2ccc(Cl)c(-c3ccccn3)c2)c(Cl)c1 [vismodegib] + Nc1ccn([C@@H]2O[C@H](CO)[C@@H](O)C2(F)F)c(=O)n1 [gemcitabine] (first compound 5 µM, partner dose 0.002 µM)",105%
3,"CCCS(=O)(=O)Nc1ccc(F)c(C(=O)c2c[nH]c3ncc(Cl)cc23)c1F + O=C(CCCCCCC(=O)Nc1ccccc1)NO [vorinostat] (first compound 0.4 µM, partner dose 0.4 µM)",60.6%
4,"CN(c1ncccc1CNc1nc(Nc2ccc3c(c2)CC(=O)N3)ncc1C(F)(F)F)S(C)(=O)=O + Cn1nnc2c(C(N)=O)ncn2c1=O [temozolomide] (first compound 0.4 µM, partner dose 10 µM)",69.6%
5,"CCCS(=O)(=O)Nc1ccc(F)c(C(=O)c2c[nH]c3ncc(Cl)cc23)c1F + COc1ccc(Cl)c(Nc2nc3ccccc3nc2NS(=O)(=O)c2cccc(NC(=O)C(C)(C)N)c2)c1 [XL147] (first compound 0.4 µM, partner dose 4 µM)",64%
6,"NC1(c2ccc(-c3nc4ccn5c(=O)[nH]nc5c4cc3-c3ccccc3)cc2)CCC1 + Cn1c(=O)n(-c2ccc(C(C)(C)C#N)cc2)c2c3cc(-c4cnc5ccccc5c4)ccc3ncc21 [NVP-BEZ235] (first compound 2 µM, partner dose 0.02 µM)",38.5%
7,"NC1(c2ccc(-c3nc4ccn5c(=O)[nH]nc5c4cc3-c3ccccc3)cc2)CCC1 + Cc1nc(Nc2ncc(C(=O)Nc3c(C)cccc3Cl)s2)cc(N2CCN(CCO)CC2)n1 [dasatanib] (first compound 2 µM, partner dose 0.02 µM)",65.6%
8,"NC1(c2ccc(-c3nc4ccn5c(=O)[nH]nc5c4cc3-c3ccccc3)cc2)CCC1 + O=C(Nc1cccc(Cl)c1)Nc1ncc(CCNc2ncnc3ccsc23)s1 [SNS314] (first compound 2 µM, partner dose 0.004 µM)",59.8%
9,"CCCS(=O)(=O)Nc1ccc(F)c(C(=O)c2c[nH]c3ncc(Cl)cc23)c1F + Cc1ccc(NC(=O)c2cccc(N(C)C)c2)cc1NC(=O)c1ccc(O)cc1 [ZM336372] (first compound 0.4 µM, partner dose 10 µM)",84.7%
10,"CCCS(=O)(=O)Nc1ccc(F)c(C(=O)c2c[nH]c3ncc(Cl)cc23)c1F + Nc1nc(F)nc2c1ncn2[C@@H]1O[C@H](CO)[C@@H](O)[C@@H]1O [fludarabine] (first compound 0.4 µM, partner dose 1 µM)",41.7%
11,"CS(=O)(=O)c1ccc(C(=O)Nc2ccc(Cl)c(-c3ccccn3)c2)c(Cl)c1 [vismodegib] + C[C@@H](Oc1cc(-c2cnn(C3CCNCC3)c2)cnc1N)c1c(Cl)ccc(F)c1Cl [Crizotinib] (first compound 5 µM, partner dose 1 µM)",91.6%
12,"C=C(c1ccc(C(=O)O)cc1)c1cc2c(cc1C)C(C)(C)CCC2(C)C [Bexarotene] + CC1(C)NC(=O)N(c2ccc([N+](=O)[O-])c(C(F)(F)F)c2)C1=O [nilutamide] (first compound 10 µM, partner dose 5 µM)",91.2%
13,"NC1(c2ccc(-c3nc4ccn5c(=O)[nH]nc5c4cc3-c3ccccc3)cc2)CCC1 + C[C@@H]1CCN(C(=O)CC#N)C[C@@H]1N(C)c1ncnc2[nH]ccc12 [CP690550] (first compound 2 µM, partner dose 5 µM)",69.6%
14,"CN(c1ncccc1CNc1nc(Nc2ccc3c(c2)CC(=O)N3)ncc1C(F)(F)F)S(C)(=O)=O + CC(=O)c1c(C)c2cnc(Nc3ccc(N4CCNCC4)cn3)nc2n(C2CCCC2)c1=O [palbociclib] (first compound 0.4 µM, partner dose 0.2 µM)",44.1%
15,"C=C(c1ccc(C(=O)O)cc1)c1cc2c(cc1C)C(C)(C)CCC2(C)C [Bexarotene] + CN(C)S(=O)(=O)c1ccc2c(c1)/C(=C/c1cc3c([nH]1)CCCC3)C(=O)N2 [SU6656] (first compound 10 µM, partner dose 2 µM)",104%
16,"CCCS(=O)(=O)Nc1ccc(F)c(C(=O)c2c[nH]c3ncc(Cl)cc23)c1F + O=C(O)c1ccc(-c2c[nH]c3ncc(-c4ccccc4)cc23)cc1C1CCCC1 [GSK650394] (first compound 0.4 µM, partner dose 0.8 µM)",69.5%
17,"CS(=O)(=O)c1ccc(C(=O)Nc2ccc(Cl)c(-c3ccccn3)c2)c(Cl)c1 [vismodegib] + CCCS(=O)(=O)Nc1ccc(F)c(C(=O)c2c[nH]c3ncc(Cl)cc23)c1F [PLX4720] (first compound 5 µM, partner dose 0.4 µM)",104%
